# Measurements from publication PMC4336329 (PLoS ONE, 2015).
# The whole screen tested about 310,000 compounds, of which about 14,000 (4.5%) showed an effect of 50% or more. The effect is printed as a negative number. This is one part of the list.
# Biological target: human ether-à-go-go-related gene (hERG) potassium channel (human, UniProt Q12809)
# Test: primary screen, population patch clamp on CHO cells stably expressing hERG
# 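Note: peak tail current of the secondary pulse compared with the same well before compound.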
# human ether-à-go-go-related gene (hERG) potassium channel, sequence (Q12809 whole entry, looked up): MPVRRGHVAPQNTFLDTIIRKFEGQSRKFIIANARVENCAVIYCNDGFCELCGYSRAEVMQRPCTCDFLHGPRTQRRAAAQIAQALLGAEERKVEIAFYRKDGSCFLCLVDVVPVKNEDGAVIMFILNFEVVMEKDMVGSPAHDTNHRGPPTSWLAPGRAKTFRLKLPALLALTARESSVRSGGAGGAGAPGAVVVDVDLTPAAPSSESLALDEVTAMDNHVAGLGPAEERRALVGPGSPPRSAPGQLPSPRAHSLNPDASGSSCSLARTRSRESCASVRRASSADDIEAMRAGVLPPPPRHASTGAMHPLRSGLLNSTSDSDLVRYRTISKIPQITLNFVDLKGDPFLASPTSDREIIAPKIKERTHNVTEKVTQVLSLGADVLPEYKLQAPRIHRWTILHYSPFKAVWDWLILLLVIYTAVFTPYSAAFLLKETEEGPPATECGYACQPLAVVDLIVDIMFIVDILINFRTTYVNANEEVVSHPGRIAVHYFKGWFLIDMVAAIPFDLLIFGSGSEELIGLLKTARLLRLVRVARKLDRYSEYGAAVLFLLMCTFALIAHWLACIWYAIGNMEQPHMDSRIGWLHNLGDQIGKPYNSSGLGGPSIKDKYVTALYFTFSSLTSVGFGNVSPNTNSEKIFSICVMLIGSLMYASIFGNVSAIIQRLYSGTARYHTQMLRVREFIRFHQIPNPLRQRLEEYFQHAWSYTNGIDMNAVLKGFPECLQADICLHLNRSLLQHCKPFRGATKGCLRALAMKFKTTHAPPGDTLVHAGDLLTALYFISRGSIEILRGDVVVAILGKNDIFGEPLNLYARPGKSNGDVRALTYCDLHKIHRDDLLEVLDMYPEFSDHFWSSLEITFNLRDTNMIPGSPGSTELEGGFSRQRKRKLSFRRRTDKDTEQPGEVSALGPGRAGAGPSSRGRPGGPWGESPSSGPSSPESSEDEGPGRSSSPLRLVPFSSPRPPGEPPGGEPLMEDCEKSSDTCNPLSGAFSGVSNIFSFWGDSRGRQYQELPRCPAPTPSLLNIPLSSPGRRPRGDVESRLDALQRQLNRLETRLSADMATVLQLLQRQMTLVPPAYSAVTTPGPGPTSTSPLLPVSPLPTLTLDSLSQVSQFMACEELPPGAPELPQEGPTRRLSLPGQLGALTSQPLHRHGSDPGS
row,SMILES,"hERG current change (%, negative = inhibition) at 10uM"
1,NC(=O)c1ccccc1NC(=O)/C=C/c1ccc(Cl)cc1,1.13%
2,CN1CCc2c1nc1ccccc1c2N.O=C(O)c1cc([N+](=O)[O-])ccc1Cl,-9.41%
3,COc1ccc(S(=O)(=O)N(C)c2ccc(C(N)=O)cc2)cc1,-16.9%
4,COC(=O)c1cccc(N2C(=O)c3ccccc3S2(=O)=O)c1,-9.36%
5,COc1ccc(C(=O)Nc2ccccc2C)cc1S(=O)(=O)N1CCOCC1,2.73%
6,CCCCCCNC(=O)CCc1nc2cccnc2n1Cc1ccc(OC)cc1,-63.6%
7,O=C(CN1CCN(c2ccccc2)CC1)Nc1ccccc1C(F)(F)F,-16%
8,O=C(O)C1C2C=CC3(O2)C1C(=O)N1c2ccccc2COC13 (stereo not drawn),18.8%
9,O=C(Nc1c2c(nn1-c1ccccc1)CS(=O)(=O)C2)c1cc2ccccc2o1,-20.1%
10,NC(=O)c1ccccc1OCc1nnc(-c2ccccc2Br)o1,-8.34%
11,O=C1CSC(=Nc2cc(Cl)ccc2Cl)N1,-0.496%
12,CC(=O)c1cccc(NC(=O)COC(=O)c2ccc3c(c2)OCO3)c1,12.4%
13,CCOc1ccc(-n2c(SCC(N)=O)nc3sc4c(c3c2=O)CCN(C)C4)cc1,12.4%
14,COC(=O)c1cncc(C)c1,8.06%
15,COc1ccc(NC(=O)Cn2nc(Cc3cccnc3)c3ccccc3c2=O)cc1OC,-10.2%
16,Cc1ccc(C(=O)NCCc2nnc3ccc(SCC(=O)Nc4cc(C)on4)nn23)cc1,-5.41%
17,COc1cc(C(=O)NCC(c2ccco2)N2CCc3ccccc32)cc(OC)c1OC (stereo not drawn),-6.64%
18,CN(C)c1ccc(NC(=O)C(=O)NCCOc2ccccc2)cc1,20.7%
19,O=C(CSc1nnc(-c2ccccn2)n1-c1ccccc1)Nc1ccc2c(c1)OCO2,1.81%
20,CC1CCc2c(nc3ncnn3c2N2CCN(c3ccccc3F)CC2)C1 (stereo not drawn),-24.5%
21,CC(C(=O)N1CCc2ccccc2C1)N(c1ccccc1)S(C)(=O)=O (stereo not drawn),12.4%
22,O=C(CN1C(=O)C2C3c4ccccc4C(c4ccccc43)C2C1=O)Nc1cccc(C(=O)O)c1 (stereo not drawn),-10.3%

row,SMILES,"hERG current change (%, negative = inhibition) at 10uM"
1,O=[N+]([O-])c1cccc(/C=N/Nc2nnc(-c3ccccc3)c(-c3ccccc3)n2)c1,8.57%
2,Cc1ccccc1C(=O)Nc1ccc(N(C)C)c2ccccc12,-7.47%
3,CC(C)c1ccc(CN(C)CC(O)c2ccccc2)cc1.O=C(O)C(=O)O (stereo not drawn),-18.9%
4,COc1ccc2c(c1)C1(Nc3ccccc3-c3nc4ccccc4n31)C(=O)N2 (stereo not drawn),-3.02%
5,Fc1ccc(-n2c(=S)[nH]c3cccnc32)cc1,26%
6,O=C1CCCC(O)=C1N=Nc1cccc(C(=O)O)c1,21.4%
7,O=C(O)c1ccccc1C(=O)Nc1ccc(S(=O)(=O)Nc2nccs2)cc1,4.83%
8,O=C(Oc1ccc2ccccc2c1)c1ccccc1,-7.81%
9,Cc1ccc(NS(=O)(=O)c2c(C(=O)N3CCCCCC3)c(C)n(C)c2C)c(C)c1,1.82%
10,COc1ccc([C@@H]2COc3c(ccc4c3C=CC(C)(C)O4)C2)c(OC)c1,16.2%
11,O=C(OCc1ccc([N+](=O)[O-])cc1)C1CC(=O)N(c2ccccc2)C1 (stereo not drawn),-69.1%
12,Cc1ccc(C(=O)NNC(=O)CCC(=O)Nc2cccc(Cl)c2C)cc1,-13.2%
13,CC(C)(C)OC(=O)CC12CCCCC1NC(=O)O2 (stereo not drawn),18.5%
14,CCOC(=O)C1CCN(C(=O)c2ccc(Br)o2)CC1,1.5%
15,COc1ccc(C(=O)C[n+]2cccc(C)c2C)cc1[N+](=O)[O-].[Br-],-13.2%
16,CCN1CCN(c2ncnc3scc(-c4ccc(C)cc4)c23)CC1,-22.5%
17,S=C(NCc1ccccn1)Nc1ccccc1Cl,8.2%
18,Cc1ccc(S(=O)(=O)n2ccc3c(OCCOCCSCC(NC(=O)OC(C)(C)C)C(=O)O)cccc32)cc1 (stereo not drawn),14.1%
19,O=C(O)CC1=C(c2ccc(F)cc2)CCC1=O,22.9%
20,CC1=C(C(=O)OC2CCCCC2)C(c2ccccc2)NC(=O)N1 (stereo not drawn),10.1%
21,COc1cccc(NC(=O)CN(C)C(=O)c2cc(-c3ccc(C)o3)nc3ccccc23)c1,-13.9%
22,COc1ccc(OC)c(N=C2SCCCN2C(=O)c2ccc(N3C(=O)CCC3=O)cc2)c1,-3.31%

row,SMILES,"hERG current change (%, negative = inhibition) at 10uM"
1,CCCCCN(C(=O)CCC(=O)OCC(=O)N(C)Cc1ccccc1C)c1c(N)n(CCCC)c(=O)[nH]c1=O,11.3%
2,COc1ccc(C(=O)OCC(=O)c2c[nH]c3ccccc23)cc1OC,16.6%
3,O=C(N/N=C/c1cccs1)c1cncc(Br)c1,-10.1%
4,Cc1scc(C(=O)Nc2ccon2)c1-c1ccccc1,0.994%
5,O=C(NNC(=S)Nc1ccc(Cl)cc1Cl)c1cccnc1,8.1%
6,COc1cccc(S(=O)(=O)NCc2ccc(C(=O)NCc3ccccn3)cc2)c1,-24.4%
7,Cc1cc(=O)oc2ccc(OC(C)C(=O)O)cc12 (stereo not drawn),7.86%
8,CCOC(=O)c1sc(NC(=O)C(C)(C)C)cc1C,16%
9,O=C(CSCC(=O)N1CCOCC1)Nc1ccccc1,-0.115%
10,O=C(Nc1ccc(C(O)(C(F)(F)F)C(F)(F)F)cc1)c1ccc(Cl)c([N+](=O)[O-])c1,-27.9%
11,C/C(=C\C(=O)c1ccc(F)cc1)Nc1ccc(N2CCOCC2)cc1,7.37%
12,COc1cc(CNCC(O)c2ccccc2)ccc1OCc1ccc(Cl)nc1.Cl (stereo not drawn),-35.1%
13,COc1ccc(C(c2c(C)[nH]n(C(N)=S)c2=O)C(C#N)C#N)cc1 (stereo not drawn),16.3%
14,COc1ccc(CN(C)CC(=O)Nc2sc3c(c2C#N)CCC3)c(OC)c1,-23.5%
15,Cn1c(SCC(=O)Nc2ccccc2F)nc2c(c1=O)SCC2,-9.41%
16,COc1ccc(S(=O)(=O)N(NC2=NS(=O)(=O)c3ccccc32)C(=O)C(C)C)cc1,7.43%
17,Cc1ccc(S(=O)(=O)Nc2cccc(-c3ccc4nncn4n3)c2)cc1,8.78%
18,COc1ccc(NS(=O)(=O)CC(C)C)c(OC)c1,-0.778%
19,O=C(OCCN1CCCC1=O)c1cncc(Br)c1,1.65%
20,O=C(COC(=O)c1ccc(OC(F)F)cc1)NC(=O)NC1CCCC1,-4.6%
21,Cc1cc2cc(CNC(=O)C(C)Oc3ccccc3)ccc2n1C (stereo not drawn),-6.3%
22,CN1CCN(CCC(=O)OC2CC3CCC(C2)N3C)CC1.Cl (stereo not drawn),3.31%

row,SMILES,"hERG current change (%, negative = inhibition) at 10uM"
1,O=C(c1cccc(F)c1)N1CCN(c2ccc([N+](=O)[O-])c3cccnc23)CC1,-66.1%
2,Clc1ccc(CNc2nnnn2-c2ccccc2)c(Cl)c1,20.7%
3,CCc1ccccc1N(C)S(=O)(=O)c1ccc2[nH]cc(C(=O)O)c(=O)c2c1,10.1%
4,Cc1ccc(C(=O)NNC(=O)C2CCCN(c3ncccn3)C2)cc1 (stereo not drawn),10.4%
5,CCN(C(=O)CCS(=O)(=O)c1ccc2c(c1)oc(=O)n2C)c1ccc(OC)cc1,-6.48%
6,CCOC(=O)C1=C(C)NC(=O)NC1c1ccccc1 (stereo not drawn),4.61%
7,c1ccc(Cc2nnc(Sc3ccccc3)c3ccccc23)cc1,0.319%
8,CC(Sc1n[nH]c(-c2ccccc2)n1)C(=O)c1c(N)n(C)c(=O)n(C)c1=O (stereo not drawn),-0.132%
9,COCCNC(=O)c1ccc2c(c1)nc(C)n2-c1cccc(F)c1,-3.05%
10,CCCNC(=O)CCC(NS(=O)(=O)c1ccc(C)cc1)C(=O)NCCC (stereo not drawn),-0.00172%
11,COc1cccc(Nc2c([N+](=O)[O-])cncc2[N+](=O)[O-])c1,-2.64%
12,O=C(COC(=O)c1ccncc1)Nc1cccc(Cl)c1,4.67%
13,Cl.Cn1nnnc1SCCNCc1cccc2ccccc12,-10.4%
14,COc1ccc(C2=NCC(CSc3nnc(-c4ccc5c(c4)OCO5)o3)S2)cc1 (stereo not drawn),4.27%
15,COCCCn1cc(C(=O)c2cc(OC)ccc2OCC(=O)Nc2cc(C)on2)cc(C#N)c1=O,-53%
16,O=C(Nn1cnnc1)C1Cc2ccccc2CN1S(=O)(=O)c1ccc(F)cc1 (stereo not drawn),-4.33%
17,Cc1cc2ccccc2n1CCNCc1c(C(=O)N2CCOCC2)nc2ccccn12,-7.39%
18,COC(=O)[C@@H]1C[C@H]1[C@@H](NC(=O)c1cc(C)on1)c1ccccc1,-1.58%
19,O=C1CC(NCc2ccc3c(c2)OCO3)C(=O)N1CCc1ccccc1 (stereo not drawn),-15.7%
20,Cc1ccc(S(=O)(=O)N2CCN(Cc3cc(C(C)(C)C)ccc3O)CC2)cc1,6.86%
21,O=C(O)C1Cc2ccccc2CN1S(=O)(=O)/C=C/c1ccccc1 (stereo not drawn),22.5%
